From PubChem BioAssay AID686979 (National Center for Advancing Translational Sciences (NCATS), 2013)
Screen size: about 420,000 compounds; about 50,000 (12%) were called active. This list was built around the results that the source calls inconclusive (neither active nor inactive); the mix of calls is not that of the screen. Calls follow the shape of the dose curve; as a rule, active = well fitted inhibition curve with a large enough effect; inconclusive = small, poorly fitted or top-dose-only effect; inactive = flat fitted curve, though single readings scatter. Potencies of inconclusive entries are left out as doubtful fits.

Assay: qHTS for Inhibitors of human tyrosyl-DNA phosphodiesterase 1 (TDP1): qHTS in cells in presence of CPT; also: nearly all actives have a fitted effect of over 55% in size
Conditions: chicken DT40 Tdp1-/-;hTDP1 cells + 20 nM CPT, ATP luminescence, 48 h; activity change, negative = growth inhibition: at 46.2 µM (top of the series) unless noted
Method in brief: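 Cell growth measured by CellTiter-Glo luminescence after a minimum 48 h, 37 C compound exposure with 20 nM CPT in Tdp1-knockout DT40 cells stably expressing hTDP1, seeded 400/well; qHTS titration format.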
% is scaled to controls: 0 for no effect and ±100 for the full control effect; potency is read from the fitted curve at half-maximal effect; tags tell the direction and shape of the fitted curve.

Structure (SMILES) | Potency | activity change, negative = growth inhibition
COc1cc(NC(=O)c2cc(-c3ccccc3)nc3c2cnn3C(C)C)cc(OC)c1OC | active: 13 µM | 
O=C1CCCN1c1ccc(S(=O)(=O)NCCc2ccc(Cl)cc2)cc1 | inconclusive [inhibitor, partial curve] | 
CCc1nnc(SCC(=O)NC2CC2)n1CC |  | inactive: -7.2%
CCn1c(SCC(=O)Nc2ccc(C)cc2)nc2sc3c(c2c1=O)CCN(C)C3 | inconclusive [inhibitor, single point] | 
CCN(C(=O)c1cc2c(=O)[nH]c3ccc(C)cc3c2s1)c1ccc(F)cc1 | inconclusive [inhibitor, single point] | 
CCN(CC)S(=O)(=O)c1ccc(N2CCN(S(=O)(=O)c3ccccc3C#N)CC2)nc1 | inconclusive [inhibitor, single point] | 
C=CCSc1nc2ccsc2c(=O)n1-c1cccnc1 |  | inactive: -29.6%
Cc1ccc2c(c1)C(CCN)C(=O)N2Cc1ccccc1 (centres undefined) | inconclusive [inhibitor, single point] | 
CC1CN(C(=O)c2cc(S(=O)(=O)N3CCCC3)c(Cl)cc2Cl)CC(C)O1 (centres undefined) | active: 13 µM | 
Nc1nc(N)c(-c2ccccc2)s1 | inactive | 
CCCc1n(CC)c2ccccc2[n+]1CC(O)COC1CCCCC1 (centres undefined) | active: 5.17 µM | 
CCOc1ccc(NC(=O)C2CCN(C(=O)N3CCOc4ccccc43)CC2)cc1 | inconclusive [inhibitor, single point] | 
CC(=O)Nc1cc(C(=O)NCCN2CCN(Cc3ccccc3)CC2)ccc1Sc1ccc(C)cc1 |  | inactive: 2.19%
COc1ccccc1NC(=S)N1CCN(c2ccccc2F)CC1 | inconclusive [inhibitor, single point] | 
CCCCCOc1ccc(C2C(C(=O)c3ccc(C)o3)=C(O)C(=O)N2c2cc(C)on2)cc1 (centres undefined) | inconclusive [inhibitor, single point] | 
COc1ccc(CNC(=O)c2sc(=S)n(-c3ccc(OC)cc3)c2N)cc1 | inconclusive [inhibitor, partial curve] | 
C[C@H]1CN([C@@H](C)CO)S(=O)(=O)c2ccc(Br)cc2O[C@H]1CN(C)C(=O)c1cccc(F)c1 |  | inactive: -7.01%
COc1cc(NC(=O)COC(=O)CC(C)(C)C)c(C)cc1[N+](=O)[O-] | inconclusive [inhibitor, partial curve] | 
O=[N+]([O-])c1cc(S(=O)(=O)C(F)(F)F)ccc1Sc1nc2ccccc2[nH]1 | active: 7.31 µM | 
CCCn1c(N)cc(=O)n(CCC)c1=O |  | inactive: -12.8%
Cc1nn(Cc2ccccc2)c(C)c1NC(=O)c1cc2nc(-c3ccco3)cc(C(F)(F)F)n2n1 | inconclusive [inhibitor, single point] | 
CCc1ccc(Nc2nc(N3CCOCC3)nc(N3CCOCC3)n2)cc1 | inconclusive [inhibitor, single point] | 
O=C(Nc1ccc(Cl)cn1)c1ccc2c(Cl)c3c(nc2c1)CCC3 | inconclusive [inhibitor, single point] | 
O=C(N/N=C\c1cccnc1)c1cc(-c2ccccc2)nc2c(Cl)cccc12 | active: 10.3 µM | 
CC1(NC(=O)c2cccc(S(=O)(=O)N3CCCc4ccccc43)c2)CCS(=O)(=O)C1 (centres undefined) |  | inactive: -25.7%

Structure (SMILES) | Potency | activity change, negative = growth inhibition
Cn1c(=O)c2c(nc(CN3CCN(c4ccc(F)cc4)CC3)n2Cc2ccccc2F)n(C)c1=O | active: 10.3 µM | 
O=S(=O)(c1ccc2ncsc2c1)N1CCN(c2nc(-c3cccs3)nc3ccccc23)CC1 |  | inactive: 5.32%
Nc1c(N(CCC2=CCCCC2)C(=O)Cc2ccccc2F)c(=O)[nH]c(=O)n1Cc1ccccc1 |  | inactive: 0.651%
Cc1ccc(S(=O)(=O)NCC(=O)OCc2csc(-c3ccccc3)n2)cc1 | inconclusive [inhibitor, partial curve] | 
COC(=O)c1sc(NC(=O)COc2cccnc2[N+](=O)[O-])c(C(=O)OC)c1C |  | inactive: -29.5%
O=C(O)CCNc1cc(N2CCN(C(=O)c3ccco3)CC2)c2noc3c2c1C(=O)c1ccccc1-3 |  | inactive: -1.7%
Cc1cccc(NC(=S)NNC(=O)c2csc(C(C)C)c2)c1 | inconclusive [inhibitor, single point] | 
Cc1cc(C(C)(C)C)cc(C)c1S(=O)(=O)N1CC(=O)Nc2ccccc21 | inconclusive [inhibitor, single point] | 
c1ccc(CSc2nnc(-c3ccco3)n2Cc2ccccc2)cc1 | inconclusive [inhibitor, single point] | 
NS(=O)(=O)c1ccc(CCNC(=O)CSc2ncnc3ccccc23)cc1 |  | inactive: -5.5%
Cc1ccc2nc(C)cc(N/N=C/c3ccc(F)cc3)c2c1 |  | inactive: -0.865%
O=C(CSc1ccccc1C(=O)O)NC1CCCCCC1 |  | inactive: 6.93%
O=C(CSc1nc2ccc(Cl)cc2[nH]1)NCCc1ccc(Cl)cc1 | inconclusive [inhibitor, single point] | 
CC(NC(=O)c1ccccc1Cl)C1CC2CCC1C2 (centres undefined) |  | inactive: 0.258%
O=C(O)c1cc2cccc([N+](=O)[O-])c2[nH]1 | inactive | 
CCn1c2c(c(=N)c3c1CCC3)CCCC2 | inconclusive [inhibitor, single point] | 
COc1ccc(C(=O)NC(=S)NNC(=O)c2ccco2)cc1 | active: 18.4 µM | 
COC(=O)C1=CN(C2CCCCC2)C=C(C(=O)OC)C1c1ccc2c(c1)OCO2 | inconclusive [inhibitor, single point] | 
O=P1(c2ccccc2)C=Cn2c1cc1c2CCCC1 (centres undefined) |  | inactive: 6.98%
c1ccc(-c2cc(-c3nc(-c4ccccn4)no3)c3ccccc3n2)cc1 | active: 9.2 µM | 
Cc1nc(N)c(Cc2ccc(Cl)cc2Cl)c(N)n1 | active: 11.6 µM | 
CC(C)c1ccc(NC(=O)c2cc3c(=O)oc4ccccc4c3s2)cc1 |  | inactive: -1.09%
O=C1C=C(C2OC(CO)C(O)C2O)C(=O)N1 (centres undefined) | active: 4.61 µM | 
CCCc1ccc2oc(C(=O)N(C)Cc3ccn[nH]3)c(C)c2c1 | inconclusive [inhibitor, partial curve] | 
COCCNC(=S)NN=C1CCCCCC1 | inconclusive [inhibitor, single point] | 

Structure (SMILES) | Potency | activity change, negative = growth inhibition
Cc1ccc(CCNC(=O)C2CCN(S(=O)(=O)c3cccc4cccnc34)CC2)cc1 | inconclusive [inhibitor, single point] | 
CC(C)n1ncc2c(C(=O)Nc3cccc(C#N)c3)cc(C3CC3)nc21 | inconclusive [inhibitor, single point] | 
COc1ccc(NC(=O)CN(C)CCOc2ccc(Cl)cc2)cc1OC | inconclusive [inhibitor, single point] | 
CCc1nc2c(OCC(=O)C(C)(C)C)cccn2c1N(C)C(=O)c1ccc(C)cc1 | inconclusive [inhibitor, single point] | 
O=[N+]([O-])c1ccc2c(c1)nc1n2CCN(CC2CCCO2)C1 (centres undefined) | inconclusive [inhibitor, partial curve] | 
CC1(C)Cc2c(c(N3CCOCC3)nc3snc(Br)c23)CO1 | inconclusive [inhibitor, single point] | 
COc1ccc(S(=O)(=O)N2CCN(C(=O)CCC3CCCC3)CC2)cc1 | inconclusive [inhibitor, single point] | 
Cc1cc(C)c(NC(=O)c2ccc(CN3CCc4ccccc4C3)cc2)c(C)c1 | active: 16.4 µM | 
O=c1c2ccccc2oc2cc(OCc3ccc(F)cc3)cc(O)c12 |  | inactive: -7.31%
C/C(=N\NC(=O)CCCC(=O)O)c1c(-c2ccccc2)c2cc(Cl)ccc2[nH]c1=O |  | inactive: -1.64%
COC(=O)[C@]12CCCCC=C1N(CCC1=CCCCC1)C(=O)[C@H](CC(=O)NCC1CCCCC1)C2 | inconclusive [inhibitor, single point] | 
CCN(CC)CCCNC(=O)C1CCC(CNS(=O)(=O)c2ccc(Cl)cc2)CC1 (centres undefined) | inconclusive [inhibitor, single point] | 
CCCC12CN3CC(C)(CN(C1)C3c1ccc(CC)cc1)C2=O (centres undefined) | inconclusive [inhibitor, single point] | 
CCC(CO)Nc1ccc(-c2n[nH]c(=O)c3ccccc23)cc1[N+](=O)[O-] (centres undefined) | inconclusive [inhibitor, single point] | 
CCOC(=O)c1ccc2ncc(C(=O)OCC)c(NCCc3ccc(OC)c(OC)c3)c2c1 | active: 25.9 µM | 
CCN(CC)c1ccc(/C=N/Nc2nn[nH]n2)cc1 | inconclusive [inhibitor, single point] | 
COc1ccc(C(=O)N[C@H](C(=O)NCCCSc2ccccc2)C(C)C)cc1 |  | inactive: -29.7%
COc1cc(C(=O)NCCc2ccc(F)cc2)c([N+](=O)[O-])cc1OC | inconclusive [inhibitor, single point] | 
CCOc1ccccc1NC(=O)N1C2CCCC1CC(NC(=O)C1CC1)C2 (centres undefined) |  | inconclusive: -31% [inhibitor]
COc1ccc2c(c1)CCN1C2CCN2C(=O)CCC21 (centres undefined) |  | inactive: 16.2%
Cc1cccc(N2CCN(C(c3ccc(F)cc3)c3nnc(-c4ccccc4)o3)CC2)c1C (centres undefined) | inconclusive [inhibitor, single point] | 
CC(C)C(c1nnnn1Cc1ccco1)N1CCN(c2cccc(Cl)c2)CC1 (centres undefined) | inconclusive [inhibitor, single point] | 
CC(C)(C)c1ccc(C(=O)N2CCC2(C)C(=O)Nc2cccc3ccccc23)cc1 (centres undefined) | active: 16.4 µM | 
COCCn1c(C)cc(C(=O)CN2CCCCC2)c1C | inconclusive [inhibitor, single point] | 
